Whole data set: some 81,000 sequences, median “one-hybrid fitness for binding NBS DNA” near -0.1, cut for the highest 2% near 0.36. The list shows a part of the results.
B1: Caulobacter ParB omega fusion; a variant is named by its letters at X, in order, B8GW30 (parent)
chain: MESVVVGEPGMSEGRRGLGRGLSALLGEVDAAPAQAPGEQLGGSREAPIEILQRNPDQPRRTFREEDLEDLSNSIREKGVLQPILVRPSPDTAGEYQIVAGERAWRAAQRAGLKTVPIMVRELDDLAVLEIGIIENVQRADLNVLEEALSYKVLMEKFERTQENIAQTIGKSXSHVANXMRLLXLPDEVQSYLVSGELTAXHARAIAAAADPVALAKQIIEGGLSVRETEALARKAPNLSAGKSKGGRPPRVKDTDTQALESDLSSVLGLDVSIDHRGSTGTLTITYATLEQLDDLCNRLTRGI

Variants of: B1
Test: one-hybrid fitness for binding NBS DNA (the Noc-binding site; scaled: cognate 1, non-cognate 0); higher = stronger binding
Conditions: with NBS DNA site
Summary of the method: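 The reporter was HIS3, with the binding site 19 bp from the promoter, in E. coli USO used for bacterial one-hybrid selection of Caulobacter ParB libraries with four specificity codons randomised. Growth was on M9 lacking histidine, with 0.1 mM IPTG and 5 mM 3-AT, for 48 hours at 37°C. Illumina sequencing covered plasmids before and after selection; three replicate libraries were pooled and variants with under 10 reads dropped. A fitness score is the log change in variant-to-wild-type read ratio, rescaled to the cognate and non-cognate references.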

one-hybrid fitness for binding NBS DNA, 0.241:
EMKR

one-hybrid fitness for binding NBS DNA, 0.319:
RCVT

one-hybrid fitness for binding NBS DNA, 0.329:
QQRL

one-hybrid fitness for binding NBS DNA, ≤ 0.2:
CGYC
PLNN
GSRL
DVRF
AWFS
QDTS
DDWR
SAHW
QNKN
INIS
IHTG
GWQS
THHL
TQRN
MHYR
HCNY
QISV
SPHK
GNRN
ALCV
EPNK
INQE
QKEA
SWRC
NTFW
RDPF
DGVD
WFMG
PCAA
NMFC
VCMT
WTAC
RGPT
RVPL
LYKV
SPFL
ARAD
WRHG
AAFE
PKRC
HTLN
LKKG
YLGM
AIEY
MMGG
TLIA
RYTQ
ERAL
AIKG
KYRY
REHS
WTYW
PTAR
VRLI
VDFR
PATA
TKKN
NHRS
TDVS
RSYG
KYVS
GTMR
PSQG
THRC
LTKT
PSPW
GFRV
MARS
QIVC
DRQS
SESN
STNM
KFSM
SEHA
PSVC
VGHG
FLIS
SCAS
VQEP
QHGQ
KYST
HSTT
AVWR
FKRL
QWVM
EHDV
IVNG
CIVL
VAPS
HFRT
RGMV
EFPF
YQPD
MMIS
ELCL
IDHN
YPSY
QQEM
FQYS
RNVQ
DYNT
LHTC
WAWL
NRMA
ICTE
RMIC
SWKL
TPNE
SMAA
VADE
QDVE
HRPD
EPTE
HCVR
VWVS
VACT
HNHV
TYYH
QDYS
SGAK
QLKD
VRAD
VNRS
WREW
RYQP
LEFS
SRIH
LFDE
PNTP
PGRW
ETTA
CSKH
RGYY
GNFG
AEFG
MQSV
EWST
LSHS
PQVG
LRYM
DTDW
SAVG
PSLE
QTAW
TDYT
MITC
GHTA
NRIT
QDQS
PTKV
KCFF
KTHG
NVKC
EWKD
HALA
NGDG
PADW
TQMT
STGQ
YCRC
CGVT
HTHG
TYFP
SKGV
HRKA
QYDH
SCIG
LHKT
TSAC
TTSG
SIGI
AIKK
PYRD
KRFW
YVNI
YTPM
KKRF
MIRN
TKYS
HNPL
ESDI
APTS
PPGM
RIVE
TIKF
SYCE
DQRC
LELA
EGGH
PQQR
RWCF
PSPS
NRTD
HVNV
HCEV
YQPR
YSAR
MGER
CFHL
LGKA
SHSY
DTQS
PAIL
YSYR
LHDT
PAGL
LVWA
HTMS
RNYG
NHSW
GLKN
QATN
HPIY
ECHA
CEVL
VTRM
QPNI
SGLV
RATI
QSPM
WYHS
EWYS
DRVK
TRGK
TVNI
IFLD
LVTH
DGFR
NEGR
APNF
RNLM
ADLN
WNPS
TYND
IAEL
LNKS
NLYI
CSIS
PADA
KWFG
SCPL
RINL
CQYS
LYYF
MNIT
MLYL
KKLC
RQHV
QSQY
KSDD
AHLV
LSSA
NCFT
IHES
TDCR
PPQP
QISA
IVEN
IDPI
NFPC
HNMF
AVCR
THVL
TNEH
RNLS
DIML
QAGQ
KFIG
KRLV
CTIR
LDKI
SYQE
VPLP
TEPA
AFTM
SNKD
KTRG
IETT
FVLC
SHAR
DVHS
PNRS
DNAI
YADL
QPCG
TVTH
QPYC
IHAA
NISC
TSHI
RVEV
PWLR
SLHM

one-hybrid fitness for binding NBS DNA, 0.297:
QRGW

one-hybrid fitness for binding NBS DNA, 0.276:
QLVT

one-hybrid fitness for binding NBS DNA, 0.445:
QHLR

one-hybrid fitness for binding NBS DNA, 0.624:
RKHS

one-hybrid fitness for binding NBS DNA, 0.45:
QMRV

one-hybrid fitness for binding NBS DNA, 0.596:
QMKA

one-hybrid fitness for binding NBS DNA, 0.629:
QRHA

one-hybrid fitness for binding NBS DNA, 0.202:
QHRE

one-hybrid fitness for binding NBS DNA, 0.253:
EFKR

one-hybrid fitness for binding NBS DNA, 0.661:
QKHR
